{"source": "the supplement of paper PMC11417369", "note": "Some of the results follow."}
{"tested_on": "PF3D7_0420300 AP2 domain 1 (GST-tagged)", "experiment": "gcPBM binding intensity (ln(normalized median fluorescence intensity)); higher = stronger DNA binding", "method_in_brief": "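Binding intensity is the highest Masliner-normalised natural-log median intensity over replicate spots in either probe orientation. To obtain it, GST-tagged P. falciparum DNA-binding domains made in E. coli were incubated for 1 h on an Agilent 4 × 180k array of primer-extended double-stranded 36-bp intergenic genomic probes plus negative controls. Detection used Alexa488 anti-GST antibody with scanning at 488 nm.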"}
{"sequence": "ATAAATAATTTATTCACACATACAAAAGTTTACAAA [CACACA_site5666]", "gcPBM binding intensity (ln)": 9.21}
{"sequence": "TTATTAAATTCTTTATTTAGCATATACAATAAAAGA [CACACA_negctrl_site1420]", "gcPBM binding intensity (ln)": 8.71}
{"sequence": "TATTCCTATATACAGCGTACAAAAAATAATATGTAT [XGTACX_site8112]", "gcPBM binding intensity (ln)": 9.32}
{"sequence": "GTTATTAAATAATTCACACACATATATATATATATA [CACACA_site2260]", "gcPBM binding intensity (ln)": 9.51}
{"sequence": "TATGGAACACACCTTAATATGTGATAAAATATGATA [GTGCAC_negctrl_site718]", "gcPBM binding intensity (ln)": 9.27}
{"sequence": "AAATATTATGTACGCACACACATTTTTGATATATAA [CACACA_site7755]", "gcPBM binding intensity (ln)": 9.79}
{"sequence": "CGCAACGTGAAAATACGTACACATACATTTTTATAT [XGTACX_site330]", "gcPBM binding intensity (ln)": 9.23}
{"sequence": "TAATCGTTTTATAAATGTACAAAATTGTTATGTTAT [XGTACX_site5147]", "gcPBM binding intensity (ln)": 9.2}
{"sequence": "TTAATACATACATTCACACACACTAAATGTATATTT [CACACA_site4105]", "gcPBM binding intensity (ln)": 9.8}
{"sequence": "GGGGGAAGGTTGAAGGTGCTTGATGGAGAAAAATAT", "gcPBM binding intensity (ln)": 9.64}
{"sequence": "AATAGGATATGGTACATTTTTTGTATACTTTTTGTT [CACACA_negctrl_site1804]", "gcPBM binding intensity (ln)": 9.41}
{"sequence": "ATAAATTCTATGTATACACACATATATAATATATAT [CACACA_site2689]", "gcPBM binding intensity (ln)": 9.59}
{"sequence": "AAACAAGTAATTGTTATTATTATTATATTATTATTA [CACACA_negctrl_site402]", "gcPBM binding intensity (ln)": 9}
{"sequence": "TATTTCATCTTTTAAGAAGGTACCCATATGTCATAT [GTGCAC_negctrl_site403]", "gcPBM binding intensity (ln)": 8.96}
{"sequence": "ATATATATATATATTTGTACTTACATTTTTATTTAT [XGTACX_site4551]", "gcPBM binding intensity (ln)": 9.36}
{"sequence": "AAAAATATAACCGTTACACACAAAATAATATGAGAA [CACACA_site3773]", "gcPBM binding intensity (ln)": 9.75}
{"sequence": "ATAATAAGGTTAAGCACACATATTACATATATAACT [CACACA_site3356]", "gcPBM binding intensity (ln)": 9.51}
{"sequence": "GAACGATATATTATATGTACATATATATATATATAT [XGTACX_site394]", "gcPBM binding intensity (ln)": 9.26}
{"sequence": "TCGTTTCATAATATTGTGCACATATATATTTACAAT", "gcPBM binding intensity (ln)": 9.43}
{"sequence": "CGTAAACGATATAAATGTACGAATATCTATATATTA [XGTACX_site8116]", "gcPBM binding intensity (ln)": 8.98}
{"sequence": "TATATATTGCCCTTCACACACACACCGATATATATA [CACACA_site5390]", "gcPBM binding intensity (ln)": 10.2}
{"sequence": "AATATATAAGCTGTTCTATTCAAGAATTATATCTTA [CACACA_negctrl_site270]", "gcPBM binding intensity (ln)": 9.06}
{"sequence": "CAAAGGAAACCTATCTGTACACATATTGGGGGAAAA [XGTACX_site3502]", "gcPBM binding intensity (ln)": 9.29}
{"sequence": "AGAAGATTAAACATTGCACACAAAAACATATTTTCT [CACACA_site8072]", "gcPBM binding intensity (ln)": 9.54}
{"sequence": "TAATAAAAAGTTGAGGTGCATATAGAGTTCTTCTTT [GTGCAC_site9508]", "gcPBM binding intensity (ln)": 9.4}
{"sequence": "ATATTTTATATAATAGTGCAAATAATATTAAATAAT", "gcPBM binding intensity (ln)": 9.24}
{"sequence": "ATTATAATATTTAATTGTACTTGTATTTATTCCAAA [XGTACX_site6417]", "gcPBM binding intensity (ln)": 9.17}
{"sequence": "TGCCCTTTGGTTATAACACACATGCACCCGTAAATA [CACACA_site3842]", "gcPBM binding intensity (ln)": 9.5}
{"sequence": "CACATAAAATAAGGTGCATGCAAACGAGAAAATAAA [TGCATGCA_site75]", "gcPBM binding intensity (ln)": 9.58}
{"sequence": "AATAAATATATTAAAAGTACACAAATATTATTTAAT [XGTACX_site2482]", "gcPBM binding intensity (ln)": 9.28}
{"sequence": "AAGATTAAACATTGCACACAAAAACATATTTTCTAT [CACACA_site530]", "gcPBM binding intensity (ln)": 9.4}
{"sequence": "AAAAAAAATATATTACAAAACTTAGGATCCTAATAT [CACACA_negctrl_site470]", "gcPBM binding intensity (ln)": 9.31}
{"sequence": "ATATATATATAATAATGTACTTATAATAGATGTGTA [XGTACX_site4677]", "gcPBM binding intensity (ln)": 9.33}
{"sequence": "GGAAGCTAATTACACACATGCATATTTTTTTTTCAA [TGCATGCA_site548]", "gcPBM binding intensity (ln)": 9.6}
{"sequence": "ATAATATAGAACAATACATGCAAATGGCTTAAATTT [TGCATGCA_site521]", "gcPBM binding intensity (ln)": 9.54}
{"sequence": "ATGGGACAGATATATACACACATATAAATATAAATA [CACACA_site6684]", "gcPBM binding intensity (ln)": 9.77}
{"sequence": "AAAGGGACATATATATCACACACAAAAATTAGTCCC [CACACA_site8897]", "gcPBM binding intensity (ln)": 9.76}
{"sequence": "TAATATCTACATATATGTACATATATATATATATAT [XGTACX_site7979]", "gcPBM binding intensity (ln)": 9.17}
{"sequence": "TTATATATGTATTAATGTACATAGTTGAGAAAGGTA [XGTACX_site1511]", "gcPBM binding intensity (ln)": 9.31}
{"sequence": "TTTATTATTATATTATTTTAATTTTTCTTTAGTACA [GTGCAC_negctrl_site392]", "gcPBM binding intensity (ln)": 9.07}
{"sequence": "CATTTCATTTCTTAATGTACTTTATTCCACCACATA [XGTACX_site5943]", "gcPBM binding intensity (ln)": 9.23}
{"sequence": "ATAAATATATGAAGTTGTACAAATAATTAACATTAT [XGTACX_site5740]", "gcPBM binding intensity (ln)": 9.37}
{"sequence": "AAATTAAATAAATTTACACACTAAAAATTACATATA [CACACA_site1054]", "gcPBM binding intensity (ln)": 9.33}
{"sequence": "ATTTTTTTTAATTTGTACAAATTTTGTTCACAATTT [CACACA_negctrl_site1301]", "gcPBM binding intensity (ln)": 9.26}
{"sequence": "TACCATGTTCAAATTACACACATATAATCTAATATA [CACACA_site2008]", "gcPBM binding intensity (ln)": 9.43}
{"sequence": "TATGTTAAAAAAAAATGTACATATGTTTTTGTTAAA [XGTACX_site4754]", "gcPBM binding intensity (ln)": 9.07}
{"sequence": "GACCCATTATTTTATTGTACTTTTATTATAACGTGA [XGTACX_site156]", "gcPBM binding intensity (ln)": 9.55}
{"sequence": "AAATGAATAATGATATACAAACAAATCATGTGTTAA [XGTACX_negctrl_site150]", "gcPBM binding intensity (ln)": 9.28}
{"sequence": "TTTCCCCCATATAATGAACACACACCCTCCTCATAA [CACACA_site8110]", "gcPBM binding intensity (ln)": 9.85}
{"sequence": "ATACATTCAAAATATACACACATATATATATAATAT [CACACA_site950]", "gcPBM binding intensity (ln)": 9.61}
{"sequence": "ATGTGTGTATACATCAATTATATATATATTATGTAT [GTGCAC_negctrl_site720]", "gcPBM binding intensity (ln)": 9.55}
{"sequence": "AAAATAAAAATAACAACACACATATACTATAATATT [CACACA_site2769]", "gcPBM binding intensity (ln)": 9.96}
{"sequence": "AAAATGATAATACCAAGTACACATATGAAAAATACA [XGTACX_site6763]", "gcPBM binding intensity (ln)": 9.71}
{"sequence": "TAAAAACATTTAAATTGTACGGAAATAAAAATTTTT [XGTACX_site8225]", "gcPBM binding intensity (ln)": 9.09}
{"sequence": "TAAATCATTTATTAAGTGCAATATTCTTTTTGAGAT", "gcPBM binding intensity (ln)": 8.85}
{"sequence": "TGTTTTCCCTTTAGTGTGCACGTATTTCTATTAACA [GTGCAC_site9847]", "gcPBM binding intensity (ln)": 9.71}
{"sequence": "ATATAAATATTAAATACACACATTTTTGATTAGGTT [CACACA_site7461]", "gcPBM binding intensity (ln)": 9.43}
